The supplement of paper PMC6089552
About 300 (9.4%) of roughly 3,200 compounds showed activity. The entries are a selection whose mix differs from that of the whole data set.

System: A673/TR/shEF
Experiment: cell viability (LOESS-normalised, relative to median of negative controls) (log2 ratio); higher = more viable cells (less compound effect), active = hit call of the paper (over 3 MAD below the median)
Details: treatment time: 72 h
In short: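 A673/TR/shEF Ewing sarcoma cells (1,500 per well, 384-well plates) were grown with or without doxycycline to induce EWS-FLI1 shRNA knockdown, starting 24 h before compounds. Library compounds at two or more concentrations, with DMSO controls, were added for three days. Cell viability was read by CellTiter-Glo luminescence on an Envision reader, then LOESS-corrected per plate, divided by the median of negative controls and log2-transformed. Hits were wells at least three median absolute deviations from the median of all screened wells.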

[1] = 0.25 µM, library screen: screen1, EWS-FLI1 expression: high (no doxycycline)
[2] = 0.25 µM, library screen: screen1, EWS-FLI1 expression: low (doxycycline-induced shRNA knockdown)
[3] = 0.25 µM, library screen: screen2, EWS-FLI1 expression: high (no doxycycline)
[4] = 0.25 µM, library screen: screen2, EWS-FLI1 expression: low (doxycycline-induced shRNA knockdown)
[5] = 2.5 µM, library screen: screen1, EWS-FLI1 expression: high (no doxycycline)
[6] = 2.5 µM, library screen: screen1, EWS-FLI1 expression: low (doxycycline-induced shRNA knockdown)
[7] = 2.5 µM, library screen: screen2, EWS-FLI1 expression: high (no doxycycline)
[8] = 2.5 µM, library screen: screen2, EWS-FLI1 expression: low (doxycycline-induced shRNA knockdown)
[9] = 0.103 µM, library screen: screen3, EWS-FLI1 expression: high (no doxycycline)
[10] = 0.103 µM, library screen: screen3, EWS-FLI1 expression: low (doxycycline-induced shRNA knockdown)
[11] = 0.308 µM, library screen: screen3, EWS-FLI1 expression: high (no doxycycline)
[12] = 0.308 µM, library screen: screen3, EWS-FLI1 expression: low (doxycycline-induced shRNA knockdown)
[13] = 0.926 µM, library screen: screen3, EWS-FLI1 expression: high (no doxycycline)
[14] = 0.926 µM, library screen: screen3, EWS-FLI1 expression: low (doxycycline-induced shRNA knockdown)
[15] = 2.8 µM, library screen: screen3, EWS-FLI1 expression: high (no doxycycline)
[16] = 2.8 µM, library screen: screen3, EWS-FLI1 expression: low (doxycycline-induced shRNA knockdown)
[17] = 8.3 µM, library screen: screen3, EWS-FLI1 expression: high (no doxycycline)
[18] = 8.3 µM, library screen: screen3, EWS-FLI1 expression: low (doxycycline-induced shRNA knockdown)
[19] = 25 µM, library screen: screen3, EWS-FLI1 expression: high (no doxycycline)
[20] = 25 µM, library screen: screen3, EWS-FLI1 expression: low (doxycycline-induced shRNA knockdown)

Measured: cell viability (log2)

COC1(C2=NCCN2)COc2ccccc2O1 (stereo not given)
inactive: [1] 0.131 | [2] 0.0261 | [3] 0.222 | [4] 0.0687 | [5] 0.172 | [6] -0.00705 | [7] 0.186 | [8] 0.148

NS(=O)(=O)c1cc2c(cc1C(F)(F)F)NCNS2(=O)=O
inactive: [1] 0.0902 | [2] 0.11 | [5] 0.18 | [6] 0.0973

Cc1c(NC(=O)c2cccnc2)c(=O)n(-c2ccccc2)n1C
inactive: [1] 0.176 | [2] 0.162 | [5] 0.224 | [6] 0.166

O=C(/C=C/c1ccc(O)cc1)c1ccc(O)cc1O
inactive: [1] 0.13 | [2] 0.0652 | [3] 0.186 | [4] 0.167 | [5] 0.0781 | [6] 0.0251 | [7] 0.141 | [8] 0.124

CS(=O)(=O)OCCCCOS(C)(=O)=O
inactive: 0.025 µM, library screen: screen2, EWS-FLI1 expression: high (no doxycycline) 0.215 | 0.025 µM, library screen: screen2, EWS-FLI1 expression: low (doxycycline-induced shRNA knockdown) 0.0295 | [9] 0.0761 | [10] -0.00186 | [1] 0.149 | [2] 0.0863 | [3] 0.133 | [4] 0.0683 | [11] 0.0418 | [12] 0.169 | [13] 0.0631 | [14] 0.108 | [5] 0.124 | [6] 0.173 | [7] 0.139 | [8] 0.0379 | [15] 0.0831 | [16] 0.124 | [17] 0.0681 | [18] 0.161 | 25 µM, library screen: screen2, EWS-FLI1 expression: high (no doxycycline) 0.128 | 25 µM, library screen: screen2, EWS-FLI1 expression: low (doxycycline-induced shRNA knockdown) 0.0314 | [19] 0.0754 | [20] 0.171

Cc1nnc(C(C)C)n1C1C[C@H]2CC[C@@H](C1)N2CC[C@H](NC(=O)C1CCC(F)(F)CC1)c1ccccc1 (stereo not given in full)
inactive: [9] 0.00773 | [10] 0.0537 | [11] 0.179 | [12] 0.0864 | [13] 0.11 | [14] 0.0142 | [15] 0.152 | [16] 0.0241 | [17] 0.00455 | [18] 0.0886 | [19] 0.0767 | [20] 0.0769
